Source: the supplement of paper PMC3334620
Whole data set: some 33,000 sequences, median “E-score (-0.5 to 0.5)” near -0.056, cut for the highest 2% near 0.38. This is one part of the list.

Target: Stb4 (UniProt P50104)
Assay: PBM E-score (8-mer binding enrichment) (E-score (-0.5 to 0.5)); higher = stronger / more preferred TF binding; most listed sequences are background and not binding sites
Conditions: protein concentration: 200 nM; construct: GST-DNA-binding domain
Protocol: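 Universal 'all 10-mer' protein binding microarrays (Agilent AMADID 015681) probed with GST-tagged S. cerevisiae TFs (full-length or DBD) made by in vitro transcription/translation (PURExpress), about 100-200 nM. Bound TF was detected with fluorescent anti-GST. Each ungapped 8-mer (which stands for itself and its reverse complement) is scored by the PBM enrichment score (E-score), a modified Wilcoxon-Mann-Whitney statistic from -0.5 to +0.5, computed with the Universal PBM Analysis Suite. Scale: above 0.35 generally sequence-specific binding.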

Sequence	PBM E-score
GTGTTCTA	-0.0421
ATTTGAGA	-0.184
AGCAAGCT	-0.288
AATCAACC	0.0271
AGAAGTGC	-0.122
AACCTCGA	-0.0623
CTAAGAGC	-0.0722
ACTCACCA	-0.126
ACGCTGAG	-0.29
AAAATACC	0.198
AAGACCCC	-0.0126
CGAATCAC	0.0979
TAATGGAA	-0.017
AACCGCGA	0.14
AGGGCGAC	-0.11
GGGATGAC	0.0991
CCAGCTGG	-0.104
TCACCGCA	-0.179
CGTCATAG	-0.0598
GAACATAA	0.0431
AGGCCCAC	-0.386
AAGCCGAC	0.26
AACTTGGA	-0.0187
ACTTCCGA	0.479
CCACCTCC	-0.00123

Sequence	PBM E-score
CGTTCAGC	-0.00077
ACCGTCAA	-0.077
GAATACGC	-0.0987
GCAACATA	-0.236
AGTGGCGA	-0.0817
CGGAAGCC	0.41
GTGTCTGA	-0.166
GTGTCCTA	-0.0154
GCGAAGAA	-0.137
ATTCCACG	-0.0548
TGACACCA	-0.273
TCGGGTAA	0.464
CGGCCTGC	0.0532
GCCTAAAC	-0.248
GGCGGCAA	0.229
ATGGCCGA	0.192
GCGGAGAC	0.187
AGCGCGTG	-0.0215
AGTAGTGC	-0.0753
ACCGAGAT	0.407
TGATTAAA	-0.169
ACAGGCTA	-0.197
ATTTTAAG	-0.142
CATTTTCG	0.109
AAGGGCGT	-0.165

Sequence	PBM E-score
AGGTAACG	-0.0676
CACTCTCG	0.106
TCGAATAA	-0.136
CGCCCAAG	-0.121
CTCGGTCC	0.316
CCAGACAC	-0.284
CATCGCCC	-0.101
CTAAACTA	-0.142
CGGTTACA	0.275
CATTACCC	0.157
CGTGATAG	-0.0273
GCCCTGCA	-0.112
CGGCTGTA	0.306
AAGATACC	0.041
AACCGAAG	0.362
AGACGTAA	-0.149
CTCCTGAA	0.0573
GGATAGAA	0.193
CCTGCGAG	-0.134
GCTAGACA	-0.0345
TCCAGGGA	-0.351
ACAGGGCG	-0.0833
CACACTCC	-0.0547
AAGGGCGA	-0.0681
AGGAGCTG	-0.199

Sequence	PBM E-score
ATCCCGTG	0.288
AACATATC	-0.0288
GCTCGGGA	0.464
CGGGAGAC	0.295
GGCATGGA	0.101
ATCCATTG	-0.00149
CTGAATGC	0.0226
AGCGCCAG	-0.0684
ACTCAGGC	-0.193
CCTGTCAA	-0.154
AGCACCCT	-0.276
GTTATGTA	0.0908
ATGAACAT	-0.095
CAAACTAG	-0.191
CAGGATAG	-0.0723
AGGTGCCC	-0.0279
AGAAAGAG	-0.112
ATCTTGGC	-0.063
GAACAGTC	-0.127
CCCGTTTC	0.15
GATACGTA	-0.11
ATCTTTCC	0.182
ATGTGTGA	-0.0977
AAGTAATC	-0.0359
AGTGAAAG	-0.0591

Sequence	PBM E-score
ATTCTCGC	-0.286
CAAGGTCA	-0.242
CCATGCCA	-0.0678
ATTGCGCG	0.116
ATCATTTA	0.0923
GGAAGCAA	0.199
GACACGGC	0.157
CATAAGGC	-0.0739
ACCTAATC	-0.0248
AAAGATAT	0.0432
TCGCAGCA	-0.305
CCAGATTC	0.0533
CACGCCCG	0.141
ATGTGGAG	-0.0971
GAATGCCC	-0.0783
GAAACATC	0.0593
AGATTGCC	0.0513
CGACAATA	0.0891
CATCCGTC	0.308
TCGCATAA	-0.0545
GTGATACA	-0.171
ATTAGCCC	-0.0135
ATGCCTGA	-0.22
GTCCTTCA	-0.0533
CTCCCAAG	-0.114

Sequence	PBM E-score
AATACAGT	-0.194
CGAACGTC	-0.0147
AAAGGGTT	-0.235
AAGTTTAA	-0.103
GACCTGCA	-0.327
ACATACAA	-0.0162
CTCACGTA	-0.102
AAACCCTG	-0.0104
CCCCAGCG	-0.225
CACTCGGG	0.371
TACCCCAA	-0.0488
CATACAAA	0.113
AACGAGAC	0.0629
AAAATTAG	0.0456
AGGTGCTG	-0.15
ACCTCGTG	-0.0555
CTCTAATA	-0.125
AACAGCCA	-0.153
AAACTGAA	-0.0849
ACGACCGG	0.134
ATTATGTG	-0.0588
AAGGGTTC	-0.14
ACTTATTG	-0.215
ATGTCGTC	-0.0812
ACTTCGCC	-0.0357

Sequence	PBM E-score
CCTTTACA	-0.126
CCACGATA	-0.186
AAGGATAC	-0.152
CGAGTTCA	0.022
GGGCCTAA	-0.219
CTGACCAG	-0.12
AGCGAGAG	0.0482
ATAGACGG	0.16
AGTAGAGG	-0.167
TAACTGTA	-0.321
GCCACGAC	0.00973
AGTTACGC	-0.254
AATGACCT	-0.0666
ATTGGAAC	-0.0214
CTCTGTTA	-0.138
CCATGGAA	-0.122
GTGTGGAA	-0.0632
TAGTATCA	0.0271
GAAAGGAA	0.0495
AGGTGATG	-0.0487
CTACATCA	-0.0378
GCACTGTA	-0.098
AAAAACCA	0.142
GGAAATCC	0.25
GACGACGA	-0.131

Sequence	PBM E-score
CATGTGAG	-0.203
GCGATAAC	0.0985
TACAAATA	0.135
AAAGACAT	-0.14
AGCCCGCT	-0.173
ATACGTCG	0.0259
CGACCATA	0.0767
GGTATTAA	0.104
AGACTGAG	-0.107
CATTTGTA	-0.106
CGGACCAC	0.24
AGGGGCAT	-0.228
AAAGTTAC	-0.0312
CGAACTAA	0.00743
CGCCTGCA	-0.128
ACGGACTG	-0.121
TACCTAGA	-0.0508
AAACAAAA	-0.166
CCCGCAAA	0.101
ACAAAAAA	0.0733
AACTAGGG	-0.199
CTCGCCTA	0.0116
CACTGTCA	-0.307
CAGGAAAA	-0.0586
CGCGAGAA	-0.0394

Sequence	PBM E-score
CCGTATGC	0.176
AACCTAAG	-0.166
GTCCATGA	-0.226
GCGCGACC	-0.0286
CAGAAGGA	-0.278
AACAGATG	-0.195
TTCTTAAA	-0.138
CAGTTAAA	-0.145
AGCCCTCG	-0.0469
GTTTAGGA	-0.165
ATTGGCGA	-0.271
CTTGGATA	-0.00976
ACCAGTAG	-0.123
AAGGGTCT	-0.182
AATCACCT	-0.142
AGAGCGGA	0.107
ATCTCATC	-0.153
AGCCTCAT	-0.0296
AAGGACTT	-0.0866
CATGGTTA	-0.00971
CGAACCCA	0.139
AAACTCTC	0.138
CTGTACGA	-0.154
AGTGTGAG	-0.0312
CGCCACCG	0.063

Sequence	PBM E-score
CAAATCCA	-0.163
CCTGGGAA	-0.163
ACGGTCAA	0.06
CCGATTCG	0.376
ATAACCCG	0.316
CATTACGA	-0.138
AACGATAA	0.0432
AAAGGATC	-0.132
CGTCATCC	0.125
CCTGATCA	-0.194
AGCAGAGC	0.0158
AGGACGTC	-0.169
CCTCTAAA	-0.253
AGCATCTC	-0.136
ATAAAGGG	-0.0856
GCCTTGCA	-0.253
ACAATGCC	0.0636
GCACAAAA	0.0735
GTCCCTAA	-0.0432
CTCGCAAA	-0.159
GACTGTAC	-0.138
ACCCTCTC	-0.0835
CACCATCG	-0.123
AAACGGCA	0.0407
ACTAGCGA	-0.142

Sequence	PBM E-score
ATACATCA	-0.148
GTCTTCAA	-0.289
CCTTCAGC	-0.252
CAGACATA	-0.0552
CCGCGGAG	0.189
GATCACGA	-0.155
CGCGTAGC	0.0258
CCCTACGG	0.0881
GACACTAC	-0.0111
ATACTCGC	0.153
CTAGAATA	-0.0583
GGGCTCAA	-0.0553
GGATCCAC	0.0853
GATGCCGC	0.0124
CAGAGGTA	-0.101
CTAACACC	-0.09
CGAGCTCG	0.328
GGCGTAGA	-0.0918
AATTCGCA	0.129
GATGTTCC	0.301
ACAGCTCC	0.0044
TACAATCA	-0.0408
AAATGTAG	-0.08
AAGAGATA	-0.148
ATTCGTAC	-0.0153

Sequence	PBM E-score
GAGCACTA	-0.0848
ATCGCAAA	-0.111
GCTAATCA	-0.0452
AAGATGGA	-0.00885
GCTGCCCA	-0.11
AGCGTTGG	-0.297
GCGCTGGA	0.0327
TATTGCCA	-0.0494
ATTCGCTC	-0.119
CGAAGTCA	0.0522
ATTGAGTG	-0.17
GATCAGGC	-0.0399
TCCAAGGA	0.136
AGTCTAGA	-0.236
GATCGACA	-0.121
GTCGCAGA	-0.195
AATCTTGT	0.0896
ACCCTCCC	0.25
CCATTTGA	-0.137
CGTGCTAA	-0.0967
AACGAAGG	-0.273
CTTCAGTC	-0.24
TCTTCGCA	-0.0992
TACTCCAA	-0.308
ACGTCAAC	-0.151

Sequence	PBM E-score
AGCGCTTA	-0.107
ATGTGAAC	-0.116
ACGACAAC	-0.0889
TAAATTAA	0.0737
CCTTGATA	-0.351
ATTGCACC	-0.0944
ATCTAGCA	-0.261
GGCGCTTA	0.0331
ATATTAAT	0.113
ATATCTGC	-0.222
ACGTCCCT	-0.32
ACGATAAA	0.0306
GTTGACTA	-0.228
GCCTTGGA	-0.222
AACTCTCT	-0.17
ACATGTAA	-0.0569
AAAGTAGG	-0.0266
AGAGGCTG	-0.373
CTCAAACA	-0.026
TAGGCCCA	-0.271
ACTGCCCG	0.123
AACGCTTC	-0.0915
AACCACCA	-0.102
ACCGCGGG	0.302
CTAAAGAA	-0.136

Sequence	PBM E-score
AGCCGCAT	0.0537
ATGAAAAG	-0.216
CTCTAGAC	-0.238
ACATACTA	0.016
CACCATTA	0.0648
ACTGCTTA	-0.209
ATATGACG	0.108
CATCTCGG	0.458
AGAGCCAG	-0.278
AAATCGTC	0.0518
ACCACAGA	-0.193
AGCCCCGC	0.0678
GATGCCCC	-0.106
AAGTGGCA	-0.186
TCGCAACA	-0.178
ATTGACCA	-0.186
GATTAGCA	-0.177
CTGCCTCA	-0.229
GTTAAACA	-0.0604
